Results on 46 compounds are retold here after paper PMC4336329 (PLoS ONE, 2015).

The structures appear in SMILES notation. The campaign covered roughly 310,000 compounds. About 14,000 (4.5%) showed an effect of 50% or more. The effect is printed as a negative number. The list shows a part of the results.
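Also: peak tail current of the secondary pulse compared with the same well before compound.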

The target in this assay is human ether-à-go-go-related gene (hERG) potassium channel (human, UniProt Q12809). In words: primary screen, population patch clamp on CHO cells stably expressing hERG.
human ether-à-go-go-related gene (hERG) potassium channel, sequence (Q12809 whole entry, looked up): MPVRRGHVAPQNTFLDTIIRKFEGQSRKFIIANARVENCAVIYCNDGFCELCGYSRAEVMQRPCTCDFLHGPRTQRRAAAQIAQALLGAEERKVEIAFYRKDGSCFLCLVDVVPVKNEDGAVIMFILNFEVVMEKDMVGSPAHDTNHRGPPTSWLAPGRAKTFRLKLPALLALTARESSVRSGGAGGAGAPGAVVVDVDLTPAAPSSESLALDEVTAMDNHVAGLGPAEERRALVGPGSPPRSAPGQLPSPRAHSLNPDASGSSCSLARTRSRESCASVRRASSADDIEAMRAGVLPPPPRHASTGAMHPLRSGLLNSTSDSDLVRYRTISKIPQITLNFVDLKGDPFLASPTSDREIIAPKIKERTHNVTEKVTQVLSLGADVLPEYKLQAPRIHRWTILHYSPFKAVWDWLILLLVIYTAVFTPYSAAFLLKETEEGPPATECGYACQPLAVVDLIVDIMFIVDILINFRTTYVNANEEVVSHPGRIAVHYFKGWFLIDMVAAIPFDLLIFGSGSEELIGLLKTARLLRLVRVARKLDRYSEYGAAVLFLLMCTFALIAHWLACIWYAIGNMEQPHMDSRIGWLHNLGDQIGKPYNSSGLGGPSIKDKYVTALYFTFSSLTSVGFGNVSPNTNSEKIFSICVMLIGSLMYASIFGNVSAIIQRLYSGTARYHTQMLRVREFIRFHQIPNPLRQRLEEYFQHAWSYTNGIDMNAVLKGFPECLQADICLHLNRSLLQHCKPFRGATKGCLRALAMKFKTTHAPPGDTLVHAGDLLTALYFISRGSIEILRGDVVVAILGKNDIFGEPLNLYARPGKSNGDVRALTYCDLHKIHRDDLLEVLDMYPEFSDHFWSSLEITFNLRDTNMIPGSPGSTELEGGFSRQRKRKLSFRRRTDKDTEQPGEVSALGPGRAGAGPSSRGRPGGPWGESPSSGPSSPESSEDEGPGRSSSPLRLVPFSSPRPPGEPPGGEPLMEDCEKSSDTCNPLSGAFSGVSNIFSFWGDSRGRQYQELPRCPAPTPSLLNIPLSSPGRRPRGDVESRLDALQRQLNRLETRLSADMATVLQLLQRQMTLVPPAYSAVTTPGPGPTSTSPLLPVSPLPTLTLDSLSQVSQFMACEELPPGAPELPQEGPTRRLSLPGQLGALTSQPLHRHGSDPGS
As to `CC(C)c1ccc(N2C(=O)CC(Sc3ncccn3)C2=O)cc1` (stereo not shown), the “hERG current change (%, negative = inhibition) at 10uM” value is reported as 15.3%.
In the case of `CC(=O)N1CCN(c2ccc(NC(=O)COc3ccc(Cl)cc3Cl)cc2)CC1`, the “hERG current change (%, negative = inhibition) at 10uM” value was -12.9%.
Then `CCN(C(=O)c1coc(=O)c(Br)c1)c1ccc2c(c1)OCO2`, with -1.7%; and `COc1ccc([C@H]2CC(=O)C=C(c3cc(Cl)cc(Cl)c3)C2)cc1`, with 9.18%; and `O=C(NCCCCc1ccccc1)c1ccccc1F`, with 7.63%.
Then `Cn1c(=O)oc2cc(S(=O)(=O)NCCC(=O)N3CCN(c4ccccc4F)CC3)ccc21`, with -17%; and `CC(C)(C)NC(=O)CN(C(=O)C1(C)CC(=O)N=C2C=CC=CN21)C1CCCC1` (stereo not shown), with 6.36%.
For `COc1ccc(S(=O)(=O)Cc2ccc(C(=O)O)o2)cc1` the value was 21.8%; for `Cc1ccc(N(Cc2cc(=O)[nH]c3ccccc23)C(=O)CCl)cc1`, -1.45%; for `COc1ccc(NC2CS(=O)(=O)CC2NCc2ccco2)cc1` (stereo not shown), 5.46%.
For `Cc1cc([N+](=O)[O-])ccc1NC1CCCC1`, the “hERG current change (%, negative = inhibition) at 10uM” value is -29.3%.
For `O=C(NNC(=S)NCc1ccco1)c1ccc(S(=O)(=O)N2CCOCC2)cc1` the value was 19.1%.
As for `O=C(/C=C/c1ccccc1)Nc1ccc(Br)cn1`, the “hERG current change (%, negative = inhibition) at 10uM” value was 10.2%.
Then `NC(=O)CC(NC(=O)Cc1ccc(Cl)cc1)c1ccc(NC2CCCC2)c([N+](=O)[O-])c1` (stereo not shown), with 3.04%; and `C#CC(CC)(CC)NC(=O)Nc1ccc(OCC)cc1`, with -2.63%.
Take `O=[N+]([O-])c1ccc(N2CCN(S(=O)(=O)Cc3ccccc3)CC2)cc1N1CCOCC1`: the “hERG current change (%, negative = inhibition) at 10uM” value is recorded as 1.95%.
Then `COCC(=O)Nc1ccc(-c2cn3cccnc3n2)cc1`, with 6.2%; and `CCNC(=S)N/N=C/c1ccc(OCC(=O)Nc2ccc(OC)cc2)c(OC)c1`, with 0.987%; and `Cc1ccccc1C=O`, with 5.62%.
Consider `O=C(NNC(=O)c1cccc2ccccc12)c1ccco1`, for which the “hERG current change (%, negative = inhibition) at 10uM” value is recorded as 19.6%.
For `Cc1cccc(OCC(=O)NCC2CCCO2)c1C` (stereo not shown) the value was -6.7%; for `CC(=O)Nc1cc(S(=O)(=O)Nc2ccccc2C)c(C)cc1C`, -7.03%.
For `CSc1ccc(/C=N/n2c(C3CCCCC3)n[nH]c2=S)cc1` the value was 21.9%; for `Cc1ccc2c(c1)N(CC(=O)c1cccc(Cl)c1)C(=O)C(C)O2` (stereo not shown), -1.25%.
On to `COC(=O)CCN(C(=O)c1ccc(C)c([N+](=O)[O-])c1)c1ccccn1`, for which the “hERG current change (%, negative = inhibition) at 10uM” value is 19.3%.
As for `Cc1ccc(N(CC(=O)NCc2ccc3c(c2)OCO3)C(=O)CCC(=O)Nc2ccccn2)cc1`, the “hERG current change (%, negative = inhibition) at 10uM” value amounted to 3.15%.
As for `CC(=O)Nc1ccc(S(=O)(=O)N2CCC(C(=O)NCc3ccco3)CC2)cc1`, the “hERG current change (%, negative = inhibition) at 10uM” value is listed as 0.324%.
For the compound `O=C(Nc1ccccc1OC(F)F)C1CCCN1C(=O)c1cccs1` (stereo not shown), the “hERG current change (%, negative = inhibition) at 10uM” value is listed as 1.98%.
Then `CCOC(=O)CSc1nc2nc(C)cc(C)n2n1`, with 0.674%; and `COC(=O)CSc1nc(NC#N)nc(NC(C)C)n1`, with 20.8%.
For `COc1ccc(-c2noc(C3CCCN(C(=O)c4cccc(F)c4)C3)n2)cc1` (stereo not shown) the value was -21.7%.
For `CN(Cc1ccccc1)S(=O)(=O)c1cc2c3c(c1)CCN3C(=O)CC2` the value was 0.905%; for `COc1ccc(NC(=O)CCS(=O)(=O)c2cc3c(cc2Cl)NC(=O)CO3)cc1OC`, 9.57%.
Consider `COc1ccc(CN(C)CC(O)COC(c2ccc(OC)cc2)c2ccc(OC)cc2)cc1` (stereo not shown), for which the “hERG current change (%, negative = inhibition) at 10uM” value is reported as -77.2%.
Regarding `CCOC(=O)C1=C(Nc2ccc(Br)cc2)CC(C)(O)C(C(=O)OCC)C1c1ccccc1` (stereo not shown), the “hERG current change (%, negative = inhibition) at 10uM” value is reported as 10.5%.
Then `Cn1cnc([N+](=O)[O-])c1Sc1n[nH]c(N)n1`, with 14.3%; and `CCCCC(C(=O)NC(=O)NCc1ccccc1)N1C(=O)c2ccccc2C1=O` (stereo not shown), with 11%.
In the case of `CCOC(=O)Cc1nn(Cc2nc(-c3ccc(C)cc3)cs2)c(=O)c2ccccc12`, the “hERG current change (%, negative = inhibition) at 10uM” value is given as -3.17%.
Consider `Cc1sc2ncn(CCC(=O)O)c(=O)c2c1C`, for which the “hERG current change (%, negative = inhibition) at 10uM” value is listed as 20.5%.
As for `CN(Cc1nccs1)C(=O)c1ccc(OC2CCN(Cc3ccccn3)CC2)cc1`, the “hERG current change (%, negative = inhibition) at 10uM” value is recorded as -11.5%.
With `CC1CCN(S(=O)(=O)c2ccc(S(=O)(=O)N3CCCC3)cc2)CC1`, the “hERG current change (%, negative = inhibition) at 10uM” value is -9.29%.
With `CC(C)(C)C(=O)N1NC(=Nc2ccccc2)SC1(C)C`, the “hERG current change (%, negative = inhibition) at 10uM” value is reported as 2.2%.
Then `Cc1ccc(Cc2cnc(NC(=O)C3=NCCN3)s2)cc1`, with -0.641%; and `COc1ccc(-n2c(-c3ccccc3)nc3ccccc3c2=O)cc1`, with -3.34%; and `Cc1cc(C)n2ncc(/C(N)=N/OC(=O)Nc3ccc(Cl)cc3)c2n1`, with 11.5%.
As to `Nc1c2c(nc3ccccc13)CSCC2`, the “hERG current change (%, negative = inhibition) at 10uM” value was -57.3%.
